Results on 44 compounds are retold here after US7423058B2, “Inhibitors of hepatitis C virus NS3 protease” (Schering Corporation, priority 2004, dated 2008).

A word on the Ki: it is the equilibrium dissociation constant of an inhibitor or competing ligand from its target.

Structures are written as SMILES. A value given as a limit tells only on which side of the number the result lay.

For the assay, the target named is Recombinant heterodimeric HCV NS3/NS4A protease (strain 1a) (Hepatitis C virus genotype 1a, UniProt P27958). Nature of the assay: Spectrophotometric assay for HCV protease inhibitory activity (chromogenic ester substrates). The settings on record: Table 3, Esters; read-out: Ki* Range. Format: biochemical.
As for `CC(C)(C)OC(=O)[C@H](NC(=O)N[C@H](C(=O)N1C[C@H]2[C@@H]([C@H]1C(=O)NC(CC1CC1)C(=O)C(N)=O)C2(C)C)C1CCCCC1)C(C)(C)C` (some centres unmarked) [compound 4325], the Ki is less than 75 nM.
For the compound `CC(C)(C)OC(=O)[C@@H](NC(=O)N[C@H](C(=O)N1C[C@H]2[C@@H]([C@H]1C(=O)NC(CC1CC1)C(=O)C(N)=O)C2(C)C)C1CCCCC1)C1CCCC1` (some centres unmarked) [compound 4326], the Ki was less than 75 nM.
For the compound `CC(C)OC(=O)[C@@H](NC(=O)N[C@H](C(=O)N1C[C@H]2[C@@H]([C@H]1C(=O)NC(CC1CC1)C(=O)C(N)=O)C2(C)C)C(C)(C)C)C(C)C` (some centres unmarked) [compound 4327], the inhibition constant (Ki) is less than 75 nM.
On to `CC(C)OC(=O)[C@@H](NC(=O)N[C@H](C(=O)N1C[C@H]2[C@@H]([C@H]1C(=O)NC(CC1CC1)C(=O)C(N)=O)C2(C)C)C(C)(C)C)C1CCC1` (some centres unmarked) [compound 4329], for which the inhibitory constant (Ki) is less than 75 nM.
As for `CC(C)(C)[C@H](NC(=O)N[C@H](C(=O)N1C[C@H]2[C@@H]([C@H]1C(=O)NC(CCC(F)(F)F)C(=O)C(N)=O)C2(C)C)C(C)(C)C)C(=O)OCC1CC1` (some centres unmarked) [compound 4330], the Ki is less than 75 nM.
As to `CC(C)[C@H](NC(=O)N[C@H](C(=O)N1C[C@H]2[C@@H]([C@H]1C(=O)NC(CC1CC1)C(=O)C(N)=O)C2(C)C)C(C)(C)C)C(=O)OC(C)(C)C(F)(F)F` (some centres unmarked) [compound 4331], the inhibition constant (Ki) is less than 75 nM.
The same measure for `CC(C)[C@H](NC(=O)N[C@H](C(=O)N1C[C@H]2[C@@H]([C@H]1C(=O)NC(CC1CCC1)C(=O)C(N)=O)C2(C)C)C(C)(C)C)C(=O)OCC1CC1` (some centres unmarked) [compound 4332]: less than 75 nM; for `CC(C)(C)[C@H](NC(=O)N[C@H](C(=O)OCC1CC1)C1CCCC1)C(=O)N1C[C@H]2[C@@H]([C@H]1C(=O)NC(CC1CC1)C(=O)C(N)=O)C2(C)C` (some centres unmarked) [compound 4333]: less than 75 nM.
Take `CC(C)(C)[C@H](NC(=O)N[C@H](C(=O)N1C[C@H]2[C@@H]([C@H]1C(=O)NC(CC1CCC1)C(=O)C(N)=O)C2(C)C)C(C)(C)C)C(=O)OCc1ccccc1` (some centres unmarked) [compound 4334]: the Ki is less than 75 nM.
The same measure for `CC(C)(C)OC(=O)[C@@H](NC(=O)N[C@H](C(=O)N1C[C@H]2[C@@H]([C@H]1C(=O)NC(CC1CC1)C(=O)C(N)=O)C2(Cl)Cl)C(C)(C)C)C(C)(C)C` (some centres unmarked) [compound 4335]: less than 75 nM.
For the compound `CC(C)OC(=O)[C@H](NC(=O)N[C@H](C(=O)N1C[C@H]2[C@@H]([C@H]1C(=O)NC(CC1CCC1)C(=O)C(N)=O)C2(C)C)C(C)(C)C)C(C)(C)C` (some centres unmarked) [compound 4336], the inhibition constant (Ki) was less than 75 nM.
As for `CC(C)[C@H](NC(=O)N[C@H](C(=O)N1C[C@H]2[C@@H]([C@H]1C(=O)NC(CC1CC1)C(=O)C(N)=O)C2(C)C)C(C)(C)C)C(=O)OCc1ccccc1` (some centres unmarked) [compound 4337], the inhibitory constant (Ki) was less than 75 nM.
Turning to `C[C@H](OC(=O)[C@@H](NC(=O)N[C@H](C(=O)N1C[C@H]2[C@@H]([C@H]1C(=O)NC(CC1CC1)C(=O)C(N)=O)C2(C)C)C(C)(C)C)C(C)(C)C)c1ccccc1` (some centres unmarked) [compound 4338], the inhibition constant Ki is less than 75 nM.
As to `CC(C)(C)OC(=O)C(CC(F)(F)F)NC(=O)N[C@H](C(=O)N1C[C@H]2[C@@H]([C@H]1C(=O)NC(CC1CC1)C(=O)C(N)=O)C2(C)C)C(C)(C)C` (some centres unmarked) [compound 4339], the inhibition constant (Ki) was less than 75 nM.
The figure for `CC(OC(=O)[C@@H](NC(=O)N[C@H](C(=O)N1C[C@H]2[C@@H]([C@H]1C(=O)NC(CC1CC1)C(=O)C(N)=O)C2(C)C)C(C)(C)C)C(C)C)C1CC1` (some centres unmarked) [compound 4340] is less than 75 nM; for `C=CC(OC(=O)C1(NC(=O)N[C@H](C(=O)N2C[C@H]3[C@@H]([C@H]2C(=O)NC(CC2CC2)C(=O)C(N)=O)C3(C)C)C(C)(C)C)CCCCC1)c1ccccc1` (some centres unmarked) [compound 4341] it is less than 75 nM.
With `CCCC(NC(=O)[C@@H]1[C@@H]2[C@H](CN1C(=O)[C@@H](NC(=O)N[C@H](C(=O)OC(C1CC1)C1CC1)C(C)C)C(C)(C)C)C2(C)C)C(=O)C(N)=O` (some centres unmarked) [compound 4342], the inhibitory constant (Ki) was less than 75 nM.
The figure for `C=CCOC(=O)[C@@H](NC(=O)N[C@H](C(=O)N1C[C@H]2[C@@H]([C@H]1C(=O)NC(CC1CC1)C(=O)C(N)=O)C2(C)C)C(C)(C)C)C(C)(C)C` (some centres unmarked) [compound 4343] is less than 75 nM; for `CC(C)(C)OC(=O)[C@H](NC(=O)N[C@H](C(=O)N1C[C@H]2[C@@H]([C@H]1C(=O)NC(CC1CCC1)C(=O)C(N)=O)C2(C)C)C(C)(C)C)C1CCCCC1` (some centres unmarked) [compound 4344] it is less than 75 nM; for `CC(C)(C)OC(=O)[C@@H](NC(=O)N[C@H](C(=O)N1C[C@H]2[C@@H]([C@H]1C(=O)NC(CC1CC1)C(=O)C(N)=O)C2(Cl)Cl)C1Cc2ccccc2C1)C(C)(C)C` (some centres unmarked) [compound 4345] it is less than 75 nM.
With `CC(C)(C)[C@H](NC(=O)N[C@H](C(=O)OCC1CC1)C1CC1)C(=O)N1C[C@H]2[C@@H]([C@H]1C(=O)NC(CC1CC1)C(=O)C(N)=O)C2(C)C` (some centres unmarked) [compound 4346], the Ki is less than 75 nM.
Consider `COc1ccc(COC(=O)[C@@H](NC(=O)N[C@H](C(=O)N2C[C@H]3[C@@H]([C@H]2C(=O)NC(CC2CC2)C(=O)C(N)=O)C3(C)C)C(C)(C)C)C(C)C)cc1` (some centres unmarked) [compound 4347], for which the Ki was less than 75 nM.
As to `COc1ccc(COC(=O)[C@@H](NC(=O)N[C@H](C(=O)N2C[C@H]3[C@@H]([C@H]2C(=O)NC(CC2CC2)C(=O)C(N)=O)C3(C)C)C(C)(C)C)C(C)(C)C)cc1` (some centres unmarked) [compound 4348], the Ki is less than 75 nM.
The figure for `CC(C)(C)[C@H](NC(=O)N[C@H](C(=O)OCC1CC1)C1(C(F)(F)F)CC1)C(=O)N1C[C@H]2[C@@H]([C@H]1C(=O)NC(CC1CC1)C(=O)C(N)=O)C2(C)C` (some centres unmarked) [compound 4349] is less than 75 nM; for `CC(C)(C)[C@H](NC(=O)N[C@H](C(=O)OCc1ccccc1)C1CCC1)C(=O)N1C[C@H]2[C@@H]([C@H]1C(=O)NC(CC1CCC1)C(=O)C(N)=O)C2(C)C` (some centres unmarked) [compound 4350] it is less than 75 nM; for `CC(C)(C)[C@H](NC(=O)N[C@H](C(=O)N1C[C@H]2[C@@H]([C@H]1C(=O)NC(CC1CC1)C(=O)C(N)=O)C2(C)C)C(C)(C)C)C(=O)OCc1ccc(F)cc1` (some centres unmarked) [compound 4351] it is less than 75 nM.
Consider `CC(C)[C@H](NC(=O)N[C@H](C(=O)N1C[C@H]2[C@@H]([C@H]1C(=O)NC(CC1CC1)C(=O)C(N)=O)C2(C)C)C(C)(C)C)C(=O)OC(c1ccccc1)C1CC1` (some centres unmarked) [compound 4352], for which the Ki is less than 75 nM.
For the compound `CC(C)(C)[C@H](NC(=O)N[C@H](C(=O)OCc1ccccc1)C1(C(F)(F)F)CC1)C(=O)N1C[C@H]2[C@@H]([C@H]1C(=O)NC(CC1CCC1)C(=O)C(N)=O)C2(C)C` (some centres unmarked) [compound 4353], the inhibition constant (Ki) was less than 75 nM.
Consider `CC(C)[C@H](NC(=O)N[C@H](C(=O)N1C[C@H]2[C@@H]([C@H]1C(=O)NC(CC1CC1)C(=O)C(N)=O)C2(Cl)Cl)C(C)(C)C)C(=O)OC1Cc2ccccc2C1` (some centres unmarked) [compound 4354], for which the Ki is less than 75 nM.
As for `CC(C)(C)[C@H](NC(=O)N[C@H](C(=O)OCc1ccccc1)C1CCCC1)C(=O)N1C[C@H]2[C@@H]([C@H]1C(=O)NC(CC1CCC1)C(=O)C(N)=O)C2(C)C` (some centres unmarked) [compound 4356], the Ki was less than 75 nM.
In the case of `CC(C)OC(=O)[C@@H](NC(=O)N[C@H](C(=O)N1C[C@H]2[C@@H]([C@H]1C(=O)NC(CC1CCC1)C(=O)C(N)=O)C2(Cl)Cl)C1CCCCC1)C(C)(C)C` (some centres unmarked) [compound 4357], the Ki was less than 75 nM.
The same measure for `CC(C)[C@H](NC(=O)N[C@H](C(=O)N1C[C@H]2[C@@H]([C@H]1C(=O)NC(CC1CC1)C(=O)C(N)=O)C2(C)C)C(C)(C)C)C(=O)OCC1CC1` (some centres unmarked) [compound 4358]: less than 75 nM.
As to `CC(OC(=O)[C@@H](NC(=O)N[C@H](C(=O)N1C[C@H]2[C@@H]([C@H]1C(=O)NC(CC1CC1)C(=O)C(N)=O)C2(C)C)C(C)(C)C)C(C)(C)C)C1CC1` (some centres unmarked) [compound 4359], the inhibition constant (Ki) was less than 75 nM.
For the compound `CC(C)(C)[C@H](NC(=O)N[C@H](C(=O)N1C[C@H]2[C@@H]([C@H]1C(=O)NC(CC1CCC1)C(=O)C(N)=O)C2(C)C)C(C)(C)C)C(=O)OC1CCC1` (some centres unmarked) [compound 4360], the inhibition constant (Ki) is less than 75 nM.
The same measure for `CC(C)[C@H](NC(=O)N[C@H](C(=O)N1C[C@H]2[C@@H]([C@H]1C(=O)NC(CC1CC1(F)F)C(=O)C(N)=O)C2(C)C)C(C)(C)C)C(=O)OC(C)(C)C` (some centres unmarked) [compound 4361]: less than 75 nM; for `C[C@H](OC(=O)[C@@H](NC(=O)N[C@H](C(=O)N1C[C@H]2[C@@H]([C@H]1C(=O)NC(CC1CCC1)C(=O)C(N)=O)C2(Cl)Cl)C(C)(C)C)C(C)(C)C)c1ccccc1` (some centres unmarked) [compound 4362]: less than 75 nM.
As for `CC(C)(C)[C@H](NC(=O)N[C@H](C(=O)OCc1ccccc1)C1(C(F)(F)F)CC1)C(=O)N1C[C@H]2[C@@H]([C@H]1C(=O)NC(CC1CC1)C(=O)C(N)=O)C2(C)C` (some centres unmarked) [compound 4363], the Ki is less than 75 nM.
As for `CC(C)(C)OC(=O)[C@@H](NC(=O)N[C@H](C(=O)N1C[C@H]2[C@@H]([C@H]1C(=O)NC(CC1CC1)C(=O)C(N)=O)C2(C)C)C1Cc2ccccc2C1)C(C)(C)C` (some centres unmarked) [compound 4364], the Ki was less than 75 nM.
`CC(C)(C)OC(=O)[C@@H](NC(=O)N[C@H](C(=O)N1C[C@H]2[C@@H]([C@H]1C(=O)NC(CC1CC1)C(=O)C(N)=O)C2(Cl)Cl)C1CCCCC1)C(C)(C)C` (some centres unmarked) [compound 4365]: the inhibition constant (Ki) is less than 75 nM.
The same measure for `C=CCOC(=O)[C@@H](NC(=O)N[C@H](C(=O)N1C[C@H]2[C@@H]([C@H]1C(=O)NC(CC1CC1)C(=O)C(N)=O)C2(C)C)C(C)(C)C)C(C)C` (some centres unmarked) [compound 4366]: less than 75 nM.
Regarding `C#CCOC(=O)[C@@H](NC(=O)N[C@H](C(=O)N1C[C@H]2[C@@H]([C@H]1C(=O)NC(CC1CC1)C(=O)C(N)=O)C2(C)C)C(C)(C)C)C(C)C` (some centres unmarked) [compound 4367], the inhibitory constant (Ki) is less than 75 nM.
On to `CC(C)(C)COC(=O)[C@@H](NC(=O)N[C@H](C(=O)N1C[C@H]2[C@@H]([C@H]1C(=O)NC(CC1CC1)C(=O)C(N)=O)C2(C)C)C(C)(C)C)C(C)(C)C` (some centres unmarked) [compound 4368], for which the Ki is less than 75 nM.
On to `C[C@@H](OC(=O)[C@@H](NC(=O)N[C@H](C(=O)N1C[C@H]2[C@@H]([C@H]1C(=O)NC(CC1CC1)C(=O)C(N)=O)C2(C)C)C(C)(C)C)C(C)(C)C)c1ccccc1` (some centres unmarked) [compound 4369], for which the Ki is less than 75 nM.
For the compound `C=CCNC(=O)C(=O)C(CCC)NC(=O)[C@@H]1[C@@H]2[C@H](CN1C(=O)[C@@H](NC(=O)N[C@H](C(=O)OC(C)(C)C)C1CCCCC1)C(C)(C)C)C2(C)C` (some centres unmarked) [compound 4370], the inhibitory constant (Ki) is less than 75 nM.
